Reference: ChEMBL document CHEMBL1961873, “Compounds: GSK PKIS; Assays: Nanosyn kinase panel” (2012)
For part of these data: Shown are results outside the selection of strong results, which stands elsewhere. The list shows a part of the results, in another mix than the full data.

Experiments:
[1] = biological target: Tyrosine-protein kinase CSK (Homo sapiens) (UniProt P41240); settings: at 1 µM;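 also: each value is an averaged inhibition reading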
[2] = biological target: T1, Discoidin domain-containing receptor 2 (Homo sapiens) (UniProt Q16832); settings: at 0.1 µM
T1 sequence (whole entry): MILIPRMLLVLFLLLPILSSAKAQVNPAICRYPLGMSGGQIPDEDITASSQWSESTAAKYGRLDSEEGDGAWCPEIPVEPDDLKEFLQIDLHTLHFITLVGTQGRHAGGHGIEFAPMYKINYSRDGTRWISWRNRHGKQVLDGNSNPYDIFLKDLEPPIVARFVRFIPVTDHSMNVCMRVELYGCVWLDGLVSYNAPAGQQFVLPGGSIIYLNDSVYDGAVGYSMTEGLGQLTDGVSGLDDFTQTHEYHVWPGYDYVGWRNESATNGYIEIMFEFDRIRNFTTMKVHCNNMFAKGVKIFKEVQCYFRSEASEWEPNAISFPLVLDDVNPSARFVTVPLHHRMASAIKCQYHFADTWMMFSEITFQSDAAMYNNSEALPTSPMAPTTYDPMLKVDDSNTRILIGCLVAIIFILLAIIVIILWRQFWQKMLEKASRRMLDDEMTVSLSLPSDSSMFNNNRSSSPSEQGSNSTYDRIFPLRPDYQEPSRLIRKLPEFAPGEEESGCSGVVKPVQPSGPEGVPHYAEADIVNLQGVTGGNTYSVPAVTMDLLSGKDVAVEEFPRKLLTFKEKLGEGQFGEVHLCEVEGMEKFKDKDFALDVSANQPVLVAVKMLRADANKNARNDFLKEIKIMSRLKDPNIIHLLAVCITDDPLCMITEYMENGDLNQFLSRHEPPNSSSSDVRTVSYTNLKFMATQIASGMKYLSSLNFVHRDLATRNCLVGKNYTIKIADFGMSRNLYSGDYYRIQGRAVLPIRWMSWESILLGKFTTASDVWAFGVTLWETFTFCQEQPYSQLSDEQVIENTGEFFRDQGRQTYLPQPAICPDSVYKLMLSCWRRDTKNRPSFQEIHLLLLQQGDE

[3] = biological target: T1, Discoidin domain-containing receptor 2 (Homo sapiens); settings: at 1 µM
[4] = biological target: Epidermal growth factor receptor (Homo sapiens) (UniProt P00533); settings: at 0.1 µM
[5] = tested on: Epidermal growth factor receptor (Homo sapiens), P00533 [L858R]; settings: at 0.1 µM
[6] = tested on: Epidermal growth factor receptor (Homo sapiens), P00533 [L858R]; settings: at 1 µM
[7] = tested on: Epidermal growth factor receptor (Homo sapiens), P00533 [L861Q]; settings: at 0.1 µM
[8] = tested on: Epidermal growth factor receptor (Homo sapiens), P00533 [L861Q]; settings: at 1 µM
[9] = tested on: Epidermal growth factor receptor (Homo sapiens), P00533 [T790M]; settings: at 0.1 µM
[10] = biological target: Epidermal growth factor receptor (Homo sapiens) (UniProt P00533); settings: at 1 µM

Sequence of UniProt P41240 (P41240 whole entry, looked up, the tested form may be a part): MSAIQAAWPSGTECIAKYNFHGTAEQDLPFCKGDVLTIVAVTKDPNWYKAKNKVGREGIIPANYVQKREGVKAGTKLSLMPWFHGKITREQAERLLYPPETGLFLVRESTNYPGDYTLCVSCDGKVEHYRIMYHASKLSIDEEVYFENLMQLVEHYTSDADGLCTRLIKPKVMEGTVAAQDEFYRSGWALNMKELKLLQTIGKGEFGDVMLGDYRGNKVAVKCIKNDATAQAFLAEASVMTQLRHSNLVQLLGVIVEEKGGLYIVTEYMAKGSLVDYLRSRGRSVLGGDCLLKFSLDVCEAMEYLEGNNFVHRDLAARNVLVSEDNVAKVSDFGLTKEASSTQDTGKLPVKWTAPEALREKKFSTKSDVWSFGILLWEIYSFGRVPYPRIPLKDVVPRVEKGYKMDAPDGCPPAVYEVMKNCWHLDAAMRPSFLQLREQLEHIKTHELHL
Sequence of UniProt P00533 (P00533 whole entry): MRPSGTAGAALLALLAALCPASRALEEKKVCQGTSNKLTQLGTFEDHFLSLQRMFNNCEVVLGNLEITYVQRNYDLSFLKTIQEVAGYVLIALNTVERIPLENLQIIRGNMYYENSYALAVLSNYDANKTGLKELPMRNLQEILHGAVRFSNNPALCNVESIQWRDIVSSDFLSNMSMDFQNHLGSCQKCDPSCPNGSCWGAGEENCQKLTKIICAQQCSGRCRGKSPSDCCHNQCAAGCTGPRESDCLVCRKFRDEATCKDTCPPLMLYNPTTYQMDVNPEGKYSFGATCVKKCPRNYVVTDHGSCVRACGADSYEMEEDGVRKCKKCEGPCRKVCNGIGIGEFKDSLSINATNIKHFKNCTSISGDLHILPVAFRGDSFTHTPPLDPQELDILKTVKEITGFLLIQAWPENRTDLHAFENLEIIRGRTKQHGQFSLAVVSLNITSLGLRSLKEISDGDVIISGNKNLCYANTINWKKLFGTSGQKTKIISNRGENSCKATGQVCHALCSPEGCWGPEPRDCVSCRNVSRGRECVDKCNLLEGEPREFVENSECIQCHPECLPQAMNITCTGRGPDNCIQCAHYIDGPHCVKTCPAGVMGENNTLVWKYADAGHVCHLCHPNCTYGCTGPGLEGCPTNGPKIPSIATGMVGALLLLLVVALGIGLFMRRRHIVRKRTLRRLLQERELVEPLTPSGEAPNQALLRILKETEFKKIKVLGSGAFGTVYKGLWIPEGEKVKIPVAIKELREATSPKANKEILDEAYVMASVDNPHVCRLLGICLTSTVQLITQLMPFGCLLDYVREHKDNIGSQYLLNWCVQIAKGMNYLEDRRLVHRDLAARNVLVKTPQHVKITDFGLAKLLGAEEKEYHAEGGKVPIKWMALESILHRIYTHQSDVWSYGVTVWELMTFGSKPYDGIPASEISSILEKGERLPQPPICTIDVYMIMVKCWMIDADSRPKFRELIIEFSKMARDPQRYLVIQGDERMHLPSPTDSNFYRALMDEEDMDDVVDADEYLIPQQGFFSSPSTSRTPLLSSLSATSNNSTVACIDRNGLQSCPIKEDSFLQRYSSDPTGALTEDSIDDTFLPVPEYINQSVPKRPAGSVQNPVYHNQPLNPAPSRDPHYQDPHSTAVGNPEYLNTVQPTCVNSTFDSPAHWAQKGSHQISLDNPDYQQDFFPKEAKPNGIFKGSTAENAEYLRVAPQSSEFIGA

Row | Structure (SMILES) | inhibition [1] [%] | inhibition [2] [%] | inhibition [3] [%] | inhibition [4] [%] | inhibition [5] [%] | inhibition [6] [%] | inhibition [7] [%] | inhibition [8] [%] | inhibition [9] [%] | inhibition [10] [%]
1 | Cc1cccc(Oc2nccc(-c3c(-c4ccc(F)cc4)ncn3C3CCNCC3)n2)c1C | 2.22 | 2.03 | 2.55 | 0.75 | 5.39 | 35.3 | 1.98 | 9.12 | 1.66 | –
2 | COc1ccccc1C1=C(Nc2ccccc2)C(=O)NC1=O | 5.49 | 3.1 | 9.17 | 1.41 | 1.11 | 0.26 | 1.64 | 1.68 | 1.2 | 1.39
3 | Fc1ccc(-c2ncn(C3CCNCC3)c2-c2ccnc(Oc3ccc(Cl)cc3)n2)cc1 | -0.81 | -0.11 | 0.47 | 6.48 | 2.38 | 4.45 | 0.88 | 2.63 | 0.03 | 7.82
4 | COc1ccccc1Oc1nccc(-c2c(-c3ccc(F)cc3)ncn2C2CCNCC2)n1 | 3.61 | 0.64 | 1.03 | 7.14 | 3.76 | 4.88 | 3.48 | 4.22 | 1.71 | 9.34
5 | Fc1ccc(Oc2nccc(-c3c(-c4ccc(F)cc4)ncn3C3CCNCC3)n2)cc1 | 3 | 2.89 | 1.5 | -3 | 2.26 | 4.51 | 3.85 | 3.23 | 1.97 | -0.87
6 | Fc1ccc(-c2ncn(C3CCNCC3)c2-c2ccnc(Oc3cccc(C(F)(F)F)c3)n2)cc1 | 5.55 | 2.39 | 2.26 | 0.99 | 3.27 | 10.1 | 4.1 | 4.4 | 3.65 | 5.74
7 | O=C1NC(=O)C(c2ccccc2)=C1Nc1ccccc1 | 3.51 | 1.88 | 3.14 | 8.49 | 6.9 | 5.64 | 3.64 | 5.01 | 2.78 | 10.7
8 | CC(C)(C)c1ccc(Oc2nccc(-c3c(-c4ccc(F)cc4)ncn3C3CCNCC3)n2)cc1 | 2.93 | 6.73 | 45.8 | 7.7 | 1.78 | 11.4 | 4.25 | 7.41 | 1.07 | 9.47
9 | O=C1NC(=O)C(c2cccc([N+](=O)[O-])c2)=C1Nc1cc(Cl)c(O)c(Cl)c1 | 0.7 | 0.6 | 1.09 | -1.1 | 1.44 | 0.45 | 0.79 | 0.25 | -0.19 | 1.18
10 | O=C(O)c1ccc(Oc2nccc(-c3c(-c4ccc(F)cc4)ncn3C3CCNCC3)n2)cc1 | 3.23 | 1.01 | 0.98 | 1.34 | 4.05 | 4.01 | 2.48 | 3.68 | 2.06 | 2.03
11 | O=C1NC(=O)C(c2ccccc2Cl)=C1Nc1cc(Cl)c(O)c(Cl)c1 | 11.5 | 5.07 | 4.45 | 2.04 | 4.81 | 9.31 | 3.34 | 4.23 | 2.96 | 0.23
12 | CS(=O)(=O)c1ccc(Oc2nccc(-c3c(-c4ccc(F)cc4)ncn3C3CCNCC3)n2)cc1 | 2.01 | 2.29 | 4.56 | 0.66 | 1.08 | 3 | 3.15 | 3.64 | 0.7 | 5.48
13 | Fc1ccc(-c2ncn(C3CCNCC3)c2-c2ccnc(Oc3cccc(F)c3)n2)cc1 | – | 0.54 | 3.86 | 2.42 | 4.39 | 14.7 | 4.22 | 8.74 | 2.03 | 7.82
14 | NC(=O)CCc1ccccc1Oc1nccc(-c2c(-c3ccc(F)cc3)ncn2C2CCNCC2)n1 | -3.23 | 0.1 | 0.52 | 3.5 | -0.86 | 6.23 | -0.75 | -1.05 | 0.37 | 4.57
